{"source": "PubChem BioAssay AID720708", "about": "(National Center for Advancing Translational Sciences (NCATS), 2013)", "note": "Hit rate of the full screen: of about 360,000 compounds, about 660 (0.18%) were called active. The shares of active, inactive and inconclusive entries below differ from those in the screen. Calls come from the whole dose curve; as a rule, active = well fitted inhibition curve with a large enough effect; inconclusive = small, poorly fitted or top-dose-only effect; inactive = no such curve, though single readings can be large or run the other way. No potency is given beside an inconclusive call; the fits are too rough. % is set by controls: 0 for no effect and ±100 for the full control effect; potency is the fitted concentration of half-maximal effect; tags give direction and shape of the fitted curve."}
{"biological_target": "Rap guanine nucleotide exchange factor 4 (Homo sapiens) (UniProt Q8WZA2)", "sequence (Q8WZA2 whole entry, looked up)": "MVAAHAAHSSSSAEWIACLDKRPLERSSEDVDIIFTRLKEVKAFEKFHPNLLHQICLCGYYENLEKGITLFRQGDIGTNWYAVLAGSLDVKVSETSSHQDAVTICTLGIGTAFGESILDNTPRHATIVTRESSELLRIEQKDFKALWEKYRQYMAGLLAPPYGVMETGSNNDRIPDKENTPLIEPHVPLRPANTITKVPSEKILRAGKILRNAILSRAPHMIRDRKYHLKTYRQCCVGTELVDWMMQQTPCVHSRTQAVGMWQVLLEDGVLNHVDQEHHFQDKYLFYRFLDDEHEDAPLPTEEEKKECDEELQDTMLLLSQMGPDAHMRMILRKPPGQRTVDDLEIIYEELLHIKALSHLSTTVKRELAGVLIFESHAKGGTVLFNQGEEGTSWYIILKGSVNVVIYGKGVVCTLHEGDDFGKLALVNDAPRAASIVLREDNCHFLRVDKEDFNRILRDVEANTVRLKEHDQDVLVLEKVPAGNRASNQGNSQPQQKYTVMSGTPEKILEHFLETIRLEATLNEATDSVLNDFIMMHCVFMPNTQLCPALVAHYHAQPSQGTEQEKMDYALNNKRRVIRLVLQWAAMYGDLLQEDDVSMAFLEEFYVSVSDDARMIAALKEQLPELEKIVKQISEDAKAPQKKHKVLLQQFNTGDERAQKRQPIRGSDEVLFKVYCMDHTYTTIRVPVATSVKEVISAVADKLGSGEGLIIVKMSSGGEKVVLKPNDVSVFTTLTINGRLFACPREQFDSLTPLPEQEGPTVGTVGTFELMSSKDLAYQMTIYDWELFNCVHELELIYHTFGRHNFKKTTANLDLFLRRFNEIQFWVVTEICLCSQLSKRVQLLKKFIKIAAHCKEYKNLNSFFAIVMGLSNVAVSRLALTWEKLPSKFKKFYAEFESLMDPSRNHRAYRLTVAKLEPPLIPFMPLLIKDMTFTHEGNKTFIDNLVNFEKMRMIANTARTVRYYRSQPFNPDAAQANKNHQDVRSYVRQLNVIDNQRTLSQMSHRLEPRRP", "assay": "qHTS for Antagonist of cAMP-regulated guanine nucleotide exchange factor 2 (EPAC2): primary screen; note: nearly all actives have a fitted effect of over 45% in size", "conditions": "EPAC2 GEF exchange of Rap1B-BODIPY-GDP, fluorescence; activity, negative = inhibition: at 114 µM (top of the series) unless noted"}
{"smiles": "COC(=O)c1cc(-c2c[nH]c3ccccc23)n[nH]1", "Potency": "inconclusive [inhibitor, single point]"}
{"smiles": "COC(=O)C[C@H]1CC[C@H](NC(=O)Nc2ccccc2)[C@@H](CO)O1", "Potency": "inactive"}
{"smiles": "CCN(CC(=O)Nc1ccc(NC(C)=O)cc1)C(=O)CN1C(=O)C2CCCCC2C1=O", "note": "(configuration not stated)", "Potency": "inactive"}
{"smiles": "Cc1ccc([C@@H]2CC=C(C(=O)O)[C@H](c3ccccc3F)N2S(=O)(=O)c2ccccc2C)cc1", "Potency": "inconclusive [inhibitor, partial curve]"}
{"smiles": "COc1cccc(-n2c(C)c3c(OC)cccc(=O)c3c2C)c1", "Potency": "inconclusive [inhibitor, partial curve]"}
{"smiles": "CC1CCCC(NS(=O)(=O)c2cc3c(cc2Cl)NC(=O)CO3)C1C", "note": "(configuration not stated)", "Potency": "inconclusive [inhibitor, full curve, poor fit]"}
{"smiles": "COc1ccc(-c2sc(Nc3ccccc3)n[n+]2C)c(C)c1C", "Potency": "inconclusive [inhibitor, full curve]"}
{"smiles": "CCCCCc1c(-c2cccc(OC)c2)ncn1CCc1ccccc1OC", "Potency": "inconclusive [inhibitor, partial curve]"}
{"smiles": "NNC(=O)c1ccc(CSc2cccc3cccnc23)cc1", "activity, negative = inhibition": "inconclusive: -3.7% [inhibitor]"}
{"smiles": "CC(C)(C)OC(=O)NCCCCCc1cn([C@@H](CO)C(=O)NCCCCCCCCCCC(=O)N2CCN(C(=O)OC(C)(C)C)CC2)nn1", "Potency": "inconclusive [inhibitor, full curve, poor fit]"}
{"smiles": "CCCCCOC(=O)C1=C(C)Nc2nnnn2C1c1ccccc1Cl", "note": "(configuration not stated)", "Potency": "inconclusive [inhibitor, partial curve]"}
{"smiles": "CCOC(=O)c1cnc(-c2ccccc2)nc1N1CC(C)OC(C)C1", "note": "(configuration not stated)", "Potency": "inconclusive [inhibitor, partial curve]"}
{"smiles": "COc1cccc(NC(=O)CN2C(=O)CSc3nc(C)cc(C)c32)c1", "Potency": "inactive"}
{"smiles": "O=C(CCCOc1ccccc1)Nc1ccc(Cl)cn1", "Potency": "inactive"}
{"smiles": "COc1cc(Cn2c3ccc(NC(=O)CCc4ccccc4)cc3c(=O)n2C)ccc1F", "Potency": "inconclusive [inhibitor, full curve]"}
{"smiles": "CC(C)Sc1ncnc2c1oc1ccccc12", "Potency": "inactive"}
{"smiles": "COc1ccccc1/C=C(/C(=O)OCC(=O)Nc1ccccc1C)c1ccccc1", "Potency": "inactive"}
{"smiles": "Nc1nccc(SCc2ccccc2)n1", "Potency": "inactive"}
{"smiles": "CNc1nc(Nc2ccccc2)nc(OCC(F)(F)F)n1", "Potency": "inconclusive [inhibitor, single point]"}
{"smiles": "COc1ccccc1NC(=O)c1ccccc1NS(=O)(=O)c1cccs1", "Potency": "inconclusive [inhibitor, partial curve]"}
{"smiles": "CCOC(=O)C1=C(C)OC2(O)c3ccccc3C(=O)C12O", "note": "(configuration not stated)", "Potency": "inactive"}
{"smiles": "OCc1ccccc1-c1cnc2cccnn12", "Potency": "inactive"}
{"smiles": "O=C(CC(c1ccccc1)c1cc(Br)ccc1O)N1CCCCC1", "note": "(configuration not stated)", "Potency": "inconclusive [inhibitor, full curve, poor fit]"}
{"smiles": "CC1CN(S(=O)(=O)c2cccc(C(F)(F)F)c2)C(C)N1C(=O)N1CCOCC1", "note": "(configuration not stated)", "Potency": "inconclusive [inhibitor, partial curve]"}
{"smiles": "O=C(NC(=S)NC1CCS(=O)(=O)C1)c1ccccc1", "note": "(configuration not stated)", "Potency": "inactive"}
{"smiles": "COC(=O)[C@@]12CCCCN1[C@H](c1ccc(-c3cccc(Cl)c3)cc1)[C@H]1C(=O)N(C)C(=O)[C@H]12", "Potency": "inactive"}
{"smiles": "CC(C)CNC(=O)C1(C)CCCCCN1Cc1ccccc1-c1ccccc1", "note": "(configuration not stated)", "Potency": "inconclusive [inhibitor, single point]"}
{"smiles": "CC(=O)c1ccc(OCc2cc(C(=O)N(C)CCOc3ccc(C)cc3)no2)cc1", "Potency": "inconclusive [inhibitor, partial curve, poor fit]"}
{"smiles": "Cc1oc2c(c1C(=O)O)C(=O)c1ccccc1C2=O", "Potency": "inactive"}
{"smiles": "COc1cc(/C=C2\\C(=N)N3N=C(S(C)(=O)=O)SC3=NC2=O)ccc1OS(=O)(=O)c1ccc(C)cc1", "Potency": "inconclusive [inhibitor, partial curve]"}
{"smiles": "CCc1nc2c(OCc3ccc(Cl)cc3)cccn2c1N(C)C(=O)c1ccc2c(c1)OCO2", "Potency": "inconclusive [inhibitor, partial curve]"}
{"smiles": "CCOc1ccccc1CNc1ncnc2ccc(-c3c(C)noc3C)cc12", "Potency": "inconclusive [inhibitor, full curve]"}
{"smiles": "O=C(O)Cn1c(=O)c2c3c(sc2n(Cc2ccc(Cl)cc2Cl)c1=O)CCCC3", "Potency": "inconclusive [inhibitor, single point]"}
{"smiles": "NC(=O)c1ccc(C(F)(F)F)n(Cc2ccc(F)c(F)c2)c1=O", "activity, negative = inhibition": "inconclusive: -18.5% [inhibitor]"}
{"smiles": "COc1nc(SCC(=O)Nc2ccccc2Cl)nc(N(C)C)n1", "Potency": "inconclusive [inhibitor, partial curve]"}
{"smiles": "C/C(=N\\NC(=O)c1cccc(C)c1O)c1ccc(NC(=O)Cc2ccccc2)cc1", "Potency": "inactive"}
{"smiles": "COc1cc(C)c2c(c1C=O)Oc1c(c(C)c(O)c3c1C(O)OC3=O)OC2=O", "note": "(configuration not stated)", "Potency": "inconclusive [inhibitor, partial curve]"}
{"smiles": "O=S(=O)(c1ccc(Br)cc1Cl)N1CCN(CCO)CC1", "Potency": "inactive"}
{"smiles": "COc1ccccc1N(Cc1ccccc1)S(=O)(=O)c1cc(C(=O)O)ccc1Cl", "Potency": "inconclusive [inhibitor, partial curve]"}
{"smiles": "COc1ccccc1Oc1ccccc1[N+](=O)[O-]", "Potency": "inconclusive [inhibitor, full curve]"}
{"smiles": "O=S1(=O)C=C(Oc2ccc(F)cc2)c2ccccc21", "Potency": "inactive"}
{"smiles": "COc1ccc(-n2nnnc2SCC(=O)N2CCCC2=O)cc1", "Potency": "inconclusive [inhibitor, partial curve]"}
{"smiles": "COc1cc(CNC(C)c2ccccc2)cc(Br)c1OCc1ccccc1", "note": "(configuration not stated)", "Potency": "inactive"}
{"smiles": "Cc1ccc(COc2ccc(C)nc2[N+](=O)[O-])cc1", "Potency": "inactive"}
{"smiles": "CC(C)(O)C#Cc1ccc(C(=O)NC2CCCCC2)s1", "Potency": "inactive"}
{"smiles": "O=C(NCc1nnc(SCC(=O)N2CCN(c3ccccc3)CC2)o1)c1ccc(F)cc1", "Potency": "inactive"}
{"smiles": "CCCCC(=O)OC1CCC2C3CCc4cc(O)ccc4C3CCC12C", "note": "(configuration not stated)", "Potency": "inconclusive [inhibitor, full curve, poor fit]"}
